This note sets out measurements from article PMC6451091.

This is one part of the list. For part of these data: At the low end of the ranking, values are background and their order means little. For part of these data: Measured with an extract: partners may take part in the binding.

For one test, the target named is PU.1 (IVT) (UniProt P17947). Kind of test: protein-binding microarray (PBM). Particulars: 20 mM HEPES pH 7.9, 100 mM NaCl, 1 mM DTT, 0.2 mg/mL BSA, 0.02% Triton X-100, 2% milk, 0.4 mg/mL salmon testes DNA; 1 h; temperature not stated; high values mean tight binding; double strand, one strand shown; sequences stand for … in GCCTAGCAC…GTGCTAGGTCTTGATTCGCTTGACGCTGCTG
GATAAGAGGAACTGGAAGCT returned a binding signal of 3.81 z-score.
Still for that read-out and setting: for TGAGAGGAGAAGTGAAACCC the value was 1.26 z-score; for GAAAAGGGGAAATGGTTAAA, 5.4 z-score.
Take GATAAGAGGAAATGAAAGCT: the binding signal came to 3.37 z-score.
TGGCAGAGGAAGTGAACCTA: the binding signal worked out at 3.12 z-score.
Consider TAAAAGGAGAAGTGAACCGG, for which the binding signal worked out at 4.76 z-score.
Same read-out and setting: for CTGCCAGGGAAGTGAAAGCC the value was 0.927 z-score; for AAAAAGAGGAAGTGCCCTGT, 8.56 z-score; for AAAAAAAGGAACTGAATCCA, 4.94 z-score.
For the sequence CAAATGGGGAAATGAAACTC, the binding signal worked out at 4.01 z-score.
For CCCATAGGGAAGTGGTCAGA, the binding signal was found to be 3.99 z-score.
Same read-out and setting: for AAAAAGAGGAAATGCGTTGC the value was 6.2 z-score.
Still for that read-out and setting: in the case of GATAACAGGAACTGAAAGCT it was 3.45 z-score.
Still for that read-out and setting: in the case of TGAAACAGGAAGTGAAATCA it was 6.78 z-score.
With AGAAAGGGGAACAGAGAGAG, the binding signal is 3.3 z-score.
Still for that read-out and setting: for CTGCCAGGGAAGTCAAAGCA the value was 0.647 z-score; for CCAATGAGGAAGAGAAACTA, 2.28 z-score; for CTGCCTGGGAAGTGAAAGCA, 1.39 z-score.
TGGGAGAGGAAGTGAAATCA had a binding signal of 4.23 z-score.
The same measure, in the same setting: in the case of TGAAAGAGGATGTGCAACCA it was 1.97 z-score; in that of TAAAAGAGGAACAGAGAGGA, 4.09 z-score.
Sequence ATTATAAGGAAGTGAAACTG registered a binding signal of 4.72 z-score.
On to TTAAAGAGGAAGAGAAACTT, for which the binding signal was 3.4 z-score.
In the case of TCAGTGAGGAAGTGAAACAC, the binding signal amounted to 3.58 z-score.
The same measure, in the same setting: in the case of CTGGCAGGGAACTGATACTC it was 0.814 z-score.
Still for that read-out and setting: for TGAAACAGGAATTGAAACCA the value was 1.76 z-score; for TGAAACAGGAAGCGAAACCA, 3.62 z-score.
Turning to GAAAAAAGGAAGTGGGCAGC, the binding signal turned out to be 5.86 z-score.
Still for that read-out and setting: in the case of AGAAAGGGGAAGTACGGCAA it was 7.67 z-score; in that of AAAAAGCAGAAGTGAAACTT, 6.89 z-score.
On the same count and under the same terms, in the case of AACAAAAGGAAATGAAAGTA it was 0.996 z-score; in that of TGAAACTGGAAGTGAAACCA, 1.68 z-score.
The same measure, in the same setting: for GGAAGGAGGAAGTAAAAGTT the value was 6.17 z-score.
AGAACAAGGAAGTGAGCTAT returned a binding signal of 3.85 z-score.
TAATGGAGGAACTGAAACCA: the binding signal was found to be 1.93 z-score.
GTGCCAGGGAAGTGAAAGCA gave a binding signal of 1.25 z-score.
The same measure, in the same setting: for GTAAAGAGGAAGTGGAAGAA the value was 6.97 z-score; for CAAAAGAGGAACTCAGGACT, 6.31 z-score.
On the same count and under the same terms, in the case of CTTTTAAGGAACTGAAACTC it was 2.98 z-score; in that of AGAGAGAGGAAGTACTGTGA, 4.81 z-score.

For the next test, the target named is PU.1 (endogenous, THP-1 nuclear extract) (UniProt P17947). Nature of the test: nuclear extract protein-binding microarray (nextPBM). The note with it: 20 mM HEPES pH 7.9, 100 mM NaCl, 1 mM DTT, 0.2 mg/mL BSA, 0.02% Triton X-100, 2% milk, 0.4 mg/mL salmon testes DNA; 1 h; temperature not stated; high values mean tight binding; double strand, one strand shown; sequences stand for … in GCCTAGCAC…GTGCTAGGTCTTGATTCGCTTGACGCTGCTG
Turning to GAAAAGGGGAAATGGTTAAA, the binding signal worked out at 5.31 z-score.
TAAAAGGAGAAGTGAACCGG yielded a binding signal of 5.2 z-score.
Consider AAAAAGAGGAAGTGCCCTGT, for which the binding signal came to 7.36 z-score.
As for AAAAAAAGGAACTGAATCCA, the binding signal was 4.82 z-score.
Still for that read-out and setting: for CCCATAGGGAAGTGGTCAGA the value was 4.49 z-score; for AAAAAGAGGAAATGCGTTGC, 6.61 z-score.
The same measure, in the same setting: in the case of AGAAAGGGGAACAGAGAGAG it was 3.53 z-score; in that of TGGGAGAGGAAGTGAAATCA, 5.18 z-score; in that of TGAAAGAGGATGTGCAACCA, 2.42 z-score.
The same measure, in the same setting: for TAAAAGAGGAACAGAGAGGA the value was 4.73 z-score.
In the case of TCAGTGAGGAAGTGAAACAC, the binding signal came to 4.36 z-score.
Still for that read-out and setting: for GAAAAAAGGAAGTGGGCAGC the value was 6.34 z-score; for AGAAAGGGGAAGTACGGCAA, 7.06 z-score.
For the sequence GGAAGGAGGAAGTAAAAGTT, the binding signal was found to be 6.34 z-score.
Still for that read-out and setting: in the case of AGAACAAGGAAGTGAGCTAT it was 4.54 z-score; in that of GTAAAGAGGAAGTGGAAGAA, 6.8 z-score; in that of CAAAAGAGGAACTCAGGACT, 6.69 z-score.
The same measure, in the same setting: in the case of AGAGAGAGGAAGTACTGTGA it was 5.07 z-score.

The target of another test is T1, FLI1 (endogenous, THP-1 nuclear extract) (UniProt Q01543).
T1 sequence: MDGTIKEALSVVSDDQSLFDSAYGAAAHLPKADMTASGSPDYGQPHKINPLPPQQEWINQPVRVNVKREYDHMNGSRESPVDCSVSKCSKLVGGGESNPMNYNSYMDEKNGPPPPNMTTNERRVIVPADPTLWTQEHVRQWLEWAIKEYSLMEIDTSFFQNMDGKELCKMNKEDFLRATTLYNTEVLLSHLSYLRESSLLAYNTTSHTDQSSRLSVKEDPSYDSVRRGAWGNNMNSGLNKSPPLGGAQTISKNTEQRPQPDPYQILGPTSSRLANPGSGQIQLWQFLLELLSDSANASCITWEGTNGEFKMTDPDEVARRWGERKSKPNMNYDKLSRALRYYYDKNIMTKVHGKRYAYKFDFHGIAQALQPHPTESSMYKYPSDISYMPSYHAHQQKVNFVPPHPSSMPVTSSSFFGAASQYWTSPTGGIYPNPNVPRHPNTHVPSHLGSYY
The description is as above. Particulars: 20 mM HEPES pH 7.9, 100 mM NaCl, 1 mM DTT, 0.2 mg/mL BSA, 0.02% Triton X-100, 2% milk, 0.4 mg/mL salmon testes DNA; 1 h; temperature not stated; high values mean tight binding; double strand, one strand shown; sequences stand for … in GCCTAGCAC…GTGCTAGGTCTTGATTCGCTTGACGCTGCTG
Consider GATAAGAGGAACTGGAAGCT, for which the binding signal turned out to be 2.31 z-score.
The same measure, in the same setting: for TGAGAGGAGAAGTGAAACCC the value was 0.449 z-score.
Same read-out and setting: for GAAAAGGGGAAATGGTTAAA the value was 2.23 z-score; for GATAAGAGGAAATGAAAGCT, 2.53 z-score; for TGGCAGAGGAAGTGAACCTA, 2.6 z-score.
As to TAAAAGGAGAAGTGAACCGG, the binding signal stood at 1.33 z-score.
CTGCCAGGGAAGTGAAAGCC: the binding signal was determined as 0.939 z-score.
The same measure, in the same setting: in the case of AAAAAGAGGAAGTGCCCTGT it was 4.49 z-score; in that of AAAAAAAGGAACTGAATCCA, 1.7 z-score.
The same measure, in the same setting: for CAAATGGGGAAATGAAACTC the value was 2.37 z-score.
Regarding CCCATAGGGAAGTGGTCAGA, the binding signal was 1.53 z-score.
Still for that read-out and setting: for AAAAAGAGGAAATGCGTTGC the value was 3.06 z-score; for GATAACAGGAACTGAAAGCT, 1.85 z-score; for TGAAACAGGAAGTGAAATCA, 5.68 z-score.
The sequence AGAAAGGGGAACAGAGAGAG had a binding signal of 0.661 z-score.
Sequence CTGCCAGGGAAGTCAAAGCA registered a binding signal of 0.624 z-score.
Still for that read-out and setting: for CCAATGAGGAAGAGAAACTA the value was 1.57 z-score.
In the case of CTGCCTGGGAAGTGAAAGCA, the binding signal is 0.745 z-score.
Sequence TGGGAGAGGAAGTGAAATCA displayed a binding signal of 2.96 z-score.
In turn, TGAAAGAGGATGTGCAACCA gave a binding signal of 1.72 z-score.
The same measure, in the same setting: for TAAAAGAGGAACAGAGAGGA the value was 1.23 z-score; for ATTATAAGGAAGTGAAACTG, 3.26 z-score; for TTAAAGAGGAAGAGAAACTT, 1.58 z-score.
Sequence TCAGTGAGGAAGTGAAACAC showed a binding signal of 2.14 z-score.
Still for that read-out and setting: in the case of CTGGCAGGGAACTGATACTC it was -0.127 z-score.
Take TGAAACAGGAATTGAAACCA: the binding signal was determined as 1.71 z-score.
The same measure, in the same setting: for TGAAACAGGAAGCGAAACCA the value was 4.58 z-score.
Still for that read-out and setting: for GAAAAAAGGAAGTGGGCAGC the value was 3.02 z-score; for AGAAAGGGGAAGTACGGCAA, 3.5 z-score.
On the same count and under the same terms, in the case of AAAAAGCAGAAGTGAAACTT it was 3.56 z-score.
For the sequence AACAAAAGGAAATGAAAGTA, the binding signal was 2.35 z-score.
Consider TGAAACTGGAAGTGAAACCA, for which the binding signal amounted to 2.35 z-score.
Same read-out and setting: for GGAAGGAGGAAGTAAAAGTT the value was 2.97 z-score; for AGAACAAGGAAGTGAGCTAT, 1.97 z-score; for TAATGGAGGAACTGAAACCA, 1.21 z-score.
Same read-out and setting: in the case of GTGCCAGGGAAGTGAAAGCA it was 0.548 z-score; in that of GTAAAGAGGAAGTGGAAGAA, 3.81 z-score; in that of CAAAAGAGGAACTCAGGACT, 2.19 z-score.
CTTTTAAGGAACTGAAACTC had a binding signal of 2.11 z-score.
For AGAGAGAGGAAGTACTGTGA, the binding signal was 2.58 z-score.

In a further test the test system is PU.1 (endogenous, THP-1 nuclear extract) + IRF8 (endogenous, THP-1 nuclear extract). The test is described as above. The note with it: 20 mM HEPES pH 7.9, 100 mM NaCl, 1 mM DTT, 0.2 mg/mL BSA, 0.02% Triton X-100, 2% milk, 0.4 mg/mL salmon testes DNA; 1 h; temperature not stated; high values mean tight binding; double strand, one strand shown; sequences stand for … in GCCTAGCAC…GTGCTAGGTCTTGATTCGCTTGACGCTGCTG
GATAAGAGGAACTGGAAGCT: the binding signal was 0.706 z-score.
On the same count and under the same terms, in the case of TGAGAGGAGAAGTGAAACCC it was 14.6 z-score; in that of GATAAGAGGAAATGAAAGCT, 2.62 z-score; in that of TGGCAGAGGAAGTGAACCTA, 1.07 z-score.
The same measure, in the same setting: for CTGCCAGGGAAGTGAAAGCC the value was 1.95 z-score; for CAAATGGGGAAATGAAACTC, 29.6 z-score.
On the same count and under the same terms, in the case of GATAACAGGAACTGAAAGCT it was 3.23 z-score; in that of TGAAACAGGAAGTGAAATCA, 10.5 z-score; in that of CTGCCAGGGAAGTCAAAGCA, -0.272 z-score.
As to CCAATGAGGAAGAGAAACTA, the binding signal amounted to 8.64 z-score.
On the same count and under the same terms, in the case of CTGCCTGGGAAGTGAAAGCA it was 5.14 z-score; in that of ATTATAAGGAAGTGAAACTG, 60.6 z-score; in that of TTAAAGAGGAAGAGAAACTT, 3.85 z-score.
The same measure, in the same setting: in the case of CTGGCAGGGAACTGATACTC it was 1.41 z-score; in that of TGAAACAGGAATTGAAACCA, 23.8 z-score.
Take TGAAACAGGAAGCGAAACCA: the binding signal came to 65.2 z-score.
In the case of AAAAAGCAGAAGTGAAACTT, the binding signal came to 64.5 z-score.
AACAAAAGGAAATGAAAGTA: the binding signal worked out at 9.42 z-score.
As for TGAAACTGGAAGTGAAACCA, the binding signal was determined as 52.1 z-score.
Regarding TAATGGAGGAACTGAAACCA, the binding signal was 24 z-score.
Still for that read-out and setting: for GTGCCAGGGAAGTGAAAGCA the value was 3.55 z-score; for CTTTTAAGGAACTGAAACTC, 26.8 z-score.
